The IC50 comes from the fitted curve, where viability falls to half of the control; a fit beyond the top or the lowest dose is shown as a bound at that dose. AUC sums up the same curve from the lowest dose to the 256-fold higher top dose; it is 1 without any effect and falls as sensitivity rises. For part of these data: An inferred top dose comes from the curve model; the source does not state it.
Columns and labels:
Assay in all cases: Viability of human cancer cell lines after 72 h of drug (GDSC screen)
[1] = compound: C=CC(=O)Nc1ccc(C(=O)c2sc(Nc3ccc(N4CCN(C)CC4)cc3OC)nc2N)cc1 [XMD15-27]; conditions: top dose 10.24 µM; top dose inferred
Method: (§1)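 Human cancer cell lines in 384-well plates, medium with 10% serum, drug for 72 h over a 256-fold dose range (nine 2-fold or five 4-fold steps up to the top dose). Adherent lines were fixed and stained with the nucleic acid dye Syto60, suspension lines read with resazurin; signal relative to control wells, capped at 0 and 100%. One two-parameter sigmoid per drug and line, fitted in a mixed model over all curves with the slope shared within a line.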

[2] = compound: CC(=O)O[C@@H]1[C@@H](OC(C)=O)[C@@H](O)[C@H](Oc2c(-c3ccc(O)cc3)oc3cc(O)cc(O)c3c2=O)O[C@H]1C [SL 0101-1]; conditions: top dose 10 µM; top dose inferred
Method: as §1

[3] = compound: CO[C@H]1C[C@@H]2CC[C@@H](C)[C@@](O)(O2)C(=O)C(=O)N2CCCC[C@H]2C(=O)O[C@H]([C@H](C)C[C@@H]2CC[C@@H](OC(=O)C(C)(CO)CO)[C@H](OC)C2)CC(=O)[C@H](C)/C=C(\C)[C@@H](O)[C@@H](OC)C(=O)[C@H](C)C[C@H](C)/C=C/C=C/C=C/1C [Temsirolimus]; conditions: top dose 0.2 µM
Method: as §1

Cell Line	AUC [1]	IC50 [1] [µM]	AUC [2]	IC50 [2] [µM]	AUC [3]	IC50 [3] [µM]
TE-4 (oesophagus, adherent)	0.987	> 10.2	0.987	> 10	0.951	> 0.2
TE-5 (oesophagus, adherent)	0.984	> 10.2	0.979	> 10	0.761	0.081
TE-6 (oesophagus, adherent)	0.985	> 10.2	0.985	> 10	0.758	0.0801
TE-8 (oesophagus, adherent)	0.985	> 10.2	0.98	> 10	0.829	0.136
TE-9 (oesophagus, adherent)	0.987	> 10.2	0.962	> 10	0.97	> 0.2
TE-11 (oesophagus, adherent)	0.988	> 10.2	0.99	> 10	0.879	0.174
TE-12 (oesophagus, suspension)	0.939	> 10.2	0.979	> 10	0.866	> 0.2
TE-15 (oesophagus, suspension)	0.961	> 10.2	0.978	> 10	0.967	> 0.2
TGBC1TKB (biliary tract, adherent)	0.989	> 10.2	0.984	> 10	0.734	0.058
TGBC11TKB (stomach, adherent)	0.992	> 10.2	0.985	> 10	0.985	> 0.2
TGW (neuroblastoma, adherent)	0.99	> 10.2	0.992	> 10	0.961	> 0.2
TK10 (kidney, adherent)	0.981	> 10.2	0.951	> 10	0.859	> 0.2
TK (B-cell lymphoma, suspension)	0.99	> 10.2	0.989	> 10	0.905	> 0.2
TMK-1 (stomach, adherent)	0.986	> 10.2	0.986	> 10	0.834	0.141
TOV-21G (ovary, adherent)	0.984	> 10.2	0.983	> 10	0.4	0.00648
TOV-112D (ovary, adherent)	0.975	> 10.2	0.971	> 10	0.791	0.0906
TT2609-C02 (thyroid, adherent)	0.984	> 10.2	0.986	> 10	0.764	0.077

Cell Line	AUC [1]	IC50 [1] [µM]	AUC [2]	IC50 [2] [µM]	AUC [3]	IC50 [3] [µM]
TT (thyroid, adherent)	0.983	> 10.2	0.981	> 10	0.75	0.0887
TUR (B-cell lymphoma, suspension)	0.988	> 10.2	0.988	> 10	0.719	0.0493
TYK-nu (ovary, adherent)	0.985	> 10.2	0.968	> 10	0.257	0.00237
U-87-MG (glioma, adherent)	0.98	> 10.2	0.967	> 10	0.914	> 0.2
U-698-M (B-cell leukaemia, suspension)	0.984	> 10.2	0.987	> 10	0.539	0.0159
UACC-62 (melanoma, adherent)	0.988	> 10.2	0.974	> 10	0.96	> 0.2
UACC-257 (melanoma, adherent)	0.979	> 10.2	0.979	> 10	0.904	> 0.2
UACC-893 (breast, adherent)	0.978	> 10.2	0.983	> 10	0.943	> 0.2
UWB1.289 (ovary, adherent)	0.979	> 10.2	0.979	> 10	0.86	> 0.2
VA-ES-BJ (soft tissue, adherent)	0.986	> 10.2	0.966	> 10	0.44	0.00848
VAL (B-cell lymphoma, suspension)	0.98	> 10.2	0.987	> 10	0.716	0.0513
VCaP (prostate, adherent)	0.987	> 10.2	0.984	> 10	0.987	> 0.2
VMRC-RCZ (kidney, adherent)	0.975	> 10.2	0.981	> 10	0.777	0.0943
WIL2-NS (lymphoid neoplasm, suspension)	0.973	> 10.2	0.992	> 10	0.94	> 0.2
WM35 (melanoma, adherent)	0.986	> 10.2	0.979	> 10	0.672	0.038
WM793B (melanoma, adherent)	0.966	> 10.2	0.979	> 10	0.648	0.0337

— the supplement of paper PMC4967469
